Measured values as given in the supplement of paper PMC10126150.
Values marked as one replicate rest on one cluster of the flow cell; about a third of the high ones do not repeat.

Tested on: ATP
Assay: switch fluorescence ratio, 500 uM ATP over buffer (Cy3 cluster intensity, sum of 5 cycles each) (fold (ratio)); higher = stronger signal-on switching upon ATP binding; sequences stand for … in TCGTCGGCAGCGTCAGATGTGTATAAGAGACAGTTTTTTTTTTTTTTTTTTTTTTTTT…TC
Conditions: aptamer strand: ATP DNA aptamer (quencher-CACCTGGGGGAGTATTGCGGAGGAAGG + anchor), 100 nM annealed; ATP concentration: 500 uM; one replicate
How it was run: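 For every switch-domain sequence, the fluorescence ratio is the mean of per-cluster values, each being summed target-cycle Cy3 intensity over summed buffer-cycle Cy3 intensity. Clusters outside 100-1000 RFU were excluded. On a modified Illumina MiSeq flow-cell, the Cy3-labelled switching-strand clusters were annealed to 100 nM quencher-labelled ATP aptamer, imaged in selection buffer and then after 15 min with 500 uM ATP at 22 °C. Five such cycles were run, with NaOH stripping and re-annealing between them.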
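Note: ATP exposure 15 min at 22 °C before imaging.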

| Sequence | switch fluorescence ratio |
| --- | --- |
| GTGCACCCCA | 0.972 |
| TTTGGGTG | 1.01 |
| TCGTTGAGCC | 0.993 |
| ATGGAGTAT | 0.996 |
| CAAAAAGGGT | 0.925 |
| TAGGAGGAG | 0.991 |
| TGTTGATGCG | 1.05 |
| GGTCCATTCT | 0.991 |
| AATTTGCTAT | 1.01 |
| ACGACGGGTG | 1.36 |
| GCCTCATCTC | 0.997 |
| ATTGTTA | 1.01 |
| GGGACGCTGT | 0.985 |
| TTTGCGTGTC | 1.17 |
| CAACTCGAGT | 1.03 |
| CCGAAATCAG | 1.68 |
| CAGGTTGGAA | 1.06 |
| GTGTCTTGGC | 0.969 |
| TTTAAGCGT | 1.01 |
| ACTCAACACC | 1.22 |
| ATAGCCCACT | 1.04 |
| TGAGGACTTT | 0.962 |
| GTCGTATTCT | 1.01 |
| GGCAGATGAT | 1.04 |
| TTTGATATCT | 0.993 |
| TGGTGTTTCT | 0.974 |

| Sequence | switch fluorescence ratio |
| --- | --- |
| GGATCTGTTA | 0.962 |
| GTGTAAAAAT | 1.05 |
| GTTATCAACG | 1 |
| TTACGGCACA | 1.47 |
| ATAGGGTCAG | 1 |
| TCTAATGTGT | 1.03 |
| GGTTGTGCGT | 1.01 |
| TGAAGGCCCA | 0.996 |
| CGCGTGGTGT | 1.01 |
| ATGATCAGCG | 0.974 |
| GGTACTGACT | 1.12 |
| TGTGGACGTC | 1.05 |
| AAGATTTTTA | 0.983 |
| TTACAATTTA | 1.02 |
| GGCTTTTAAT | 1.06 |
| GCGCACCAGG | 3.23 |
| AAACGTGTT | 1.04 |
| CCTTAGACTT | 1.04 |
| GGTGCGTAAT | 1 |
| GTCGTAATGG | 0.968 |
| CGTTGGACAC | 1.06 |
| TTCATGCCCA | 0.959 |
| TTGTTTTTC | 0.988 |
| CGGGACGTCA | 1.04 |
| GCATACGGCA | 1.04 |
| AACGCACGTG | 1.2 |

| Sequence | switch fluorescence ratio |
| --- | --- |
| GCCATACTTC | 1.24 |
| CCTTGTGGCG | 1.01 |
| TCAGTGAGTC | 1.04 |
| CCAGAGAGGG | 0.991 |
| ACGGTCGTTT | 0.985 |
| TTTCTGACCC | 1.05 |
| GTGTACGGAG | 1.01 |
| CTTTTGCCAG | 1.06 |
| GGAGAGACGC | 0.966 |
| TGCTCACAGT | 1 |
| GCGGAGAGTC | 0.993 |
| ATAGTGGCCC | 1.03 |
| TGGTGGCCC | 0.987 |
| CCTCGGTTGT | 1.21 |
| GGGAGCTCAG | 0.979 |
| GATCTTATGT | 0.978 |
| GATAAATAGG | 1.01 |
| TCGCTCATAA | 1.2 |
| GTGTTGCCTG | 0.938 |
| GGGGCCTATT | 0.951 |
| AGACGGGCGC | 0.998 |
| ACCTTACGAT | 1.62 |
| CGCATAGGAG | 1.35 |
| TGGTGTGAGG | 0.963 |
| TTGCGGTTTG | 0.984 |
| CGGGATGAAT | 1.55 |

| Sequence | switch fluorescence ratio |
| --- | --- |
| TATGCAAAGC | 0.994 |
| TCATTGCTCG | 0.974 |
| TTCGAACTTT | 1 |
| TGGTGGTATT | 0.989 |
| CGAAGCGTTC | 3.85 |
| GGGCTGCAGT | 0.985 |
| TTTGAGTGGA | 0.984 |
| TTGCAGTCAA | 4.04 |
| CTAACTCAAA | 1.02 |
| CGCCCTAGGT | 1.42 |
| AGGCGTACCG | 0.982 |
| TAGATCAGTG | 1.01 |
| ATTTGGCCCT | 1.06 |
| AGTCCAGCAC | 1.06 |
| AATGGAGGCA | 1.06 |
| CCTCTGACAG | 3.68 |
| ACTCGTGGAG | 1.01 |
| TTCTTTTAAC | 1.07 |
| TCGGGAGACG | 0.981 |
| AAGTTATTCC | 1.11 |
| CCTGGAGGAA | 1.11 |
| CACTTGAGTA | 0.988 |
| ATAGTCCGGC | 1.08 |
| TAGGACCGGA | 0.985 |
| TAAATATTCT | 1.01 |
| GGTGATTTTT | 1.03 |

| Sequence | switch fluorescence ratio |
| --- | --- |
| GGAATGGGCC | 0.962 |
| TCCATGCGAA | 1.06 |
| CGACCGAGCG | 1.05 |
| CCGTTCCTTA | 1.02 |
| TGTCTTTTAG | 1.01 |
| AGTTTATGTA | 0.991 |
| TATTTTGTTG | 1.01 |
| TTCATAACGT | 1.01 |
| ATAGGGTAC | 1.02 |
| AGCCAGGGAC | 1.02 |
| GCCACAGTAT | 1.03 |
| TAAAGGTGCG | 1.04 |
| GTTTTGGCTC | 0.982 |
| GACTTGTGAT | 0.973 |
| CCTTTTCCTG | 1.02 |
| GCCGGACGTG | 1.03 |
| GGGAAAACAG | 1.03 |
| CTGTCGCA | 1.41 |
| CTATTGATGC | 1.02 |
| TAACTTTCCC | 1.81 |
| CTGGTGGATC | 0.969 |
| GACATACGA | 1.41 |
| ATGTAGGAGT | 1 |
| CATGTCCACC | 1.04 |
| TTCGCGCGAA | 0.985 |
| ATTTGCAGCG | 0.996 |

| Sequence | switch fluorescence ratio |
| --- | --- |
| AAGTCGGGCC | 1 |
| TTTGTGCTGA | 1.01 |
| CTGTGACGC | 1.03 |
| AACCGGCTGG | 0.978 |
| AAAGCCGGGA | 1.03 |
| GTGGGCCCCC | 1.09 |
| CCCTAGACTT | 0.985 |
| TGAAAAGGAT | 0.989 |
| TAGCGGATGG | 0.935 |
| TTCTGACGTA | 1.06 |
| ATTAGCATTA | 1.05 |
| CTAACTTCAC | 1.2 |
| TATGGCATCC | 1.04 |
| CCCCCGTTGA | 1.86 |
| AGGCCATTTG | 1.03 |
| TCCGGTATCC | 1.31 |
| TCTTGCAACT | 1.09 |
| CACGATTCCT | 1.05 |
| TATGTTCAGC | 0.978 |
| AGAACCGTTC | 1.53 |
| GCGGGGCAAA | 1.06 |
| GGCCTGGACT | 0.987 |
| TAGGCTTGAT | 0.982 |
